Data as given in publication PMC4336329 (PLoS ONE, 2015).
Out of some 310,000 compounds screened, about 2,200 (0.71%) showed an effect of 50% or more. Effects have a minus sign here. This is one part of the list.

The compounds below were run against human ether-à-go-go-related gene (hERG) potassium channel (human, UniProt Q12809) (assay: primary screen, population patch clamp on CHO cells stably expressing hERG).
Sequence of human ether-à-go-go-related gene (hERG) potassium channel (Q12809 whole entry, looked up): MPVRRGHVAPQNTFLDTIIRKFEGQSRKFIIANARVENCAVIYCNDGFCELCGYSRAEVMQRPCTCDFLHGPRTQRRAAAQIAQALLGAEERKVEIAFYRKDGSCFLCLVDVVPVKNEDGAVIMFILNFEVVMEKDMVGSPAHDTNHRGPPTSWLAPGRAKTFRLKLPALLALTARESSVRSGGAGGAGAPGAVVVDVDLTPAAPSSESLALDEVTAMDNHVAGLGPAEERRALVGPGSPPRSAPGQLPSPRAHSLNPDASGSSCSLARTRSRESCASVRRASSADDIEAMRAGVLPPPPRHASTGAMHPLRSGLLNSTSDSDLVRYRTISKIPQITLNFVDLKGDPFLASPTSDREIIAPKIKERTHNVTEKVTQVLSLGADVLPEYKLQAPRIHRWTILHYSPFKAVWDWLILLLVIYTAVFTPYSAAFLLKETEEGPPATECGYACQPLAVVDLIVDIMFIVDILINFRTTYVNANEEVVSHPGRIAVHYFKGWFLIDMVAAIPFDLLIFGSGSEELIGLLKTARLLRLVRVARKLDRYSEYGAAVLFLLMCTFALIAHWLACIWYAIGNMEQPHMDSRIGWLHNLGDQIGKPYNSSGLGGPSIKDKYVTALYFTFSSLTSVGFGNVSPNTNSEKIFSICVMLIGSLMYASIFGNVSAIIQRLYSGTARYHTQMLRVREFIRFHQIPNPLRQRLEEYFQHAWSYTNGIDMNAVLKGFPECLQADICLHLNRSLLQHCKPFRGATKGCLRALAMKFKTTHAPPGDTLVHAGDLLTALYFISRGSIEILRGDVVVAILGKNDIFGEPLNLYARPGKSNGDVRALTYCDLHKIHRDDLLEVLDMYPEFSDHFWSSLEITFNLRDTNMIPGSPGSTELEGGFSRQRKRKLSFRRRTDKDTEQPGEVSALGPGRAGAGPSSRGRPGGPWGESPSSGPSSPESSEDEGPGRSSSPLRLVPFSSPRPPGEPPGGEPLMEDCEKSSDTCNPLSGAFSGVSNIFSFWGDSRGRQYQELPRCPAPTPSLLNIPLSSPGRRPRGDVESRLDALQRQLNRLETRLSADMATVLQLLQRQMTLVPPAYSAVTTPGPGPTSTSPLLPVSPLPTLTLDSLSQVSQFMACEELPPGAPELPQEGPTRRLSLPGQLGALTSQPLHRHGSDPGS
`CCc1cccc(N(C(=O)c2csnn2)C(C(=O)NC2CCCCC2)c2cccnc2)c1` (centres unmarked) was tested, and the “hERG current change (%, negative = inhibition) at 1uM” value was 9.58%. In the case of `CCCCN(C)CCNC(=O)C1CCCN(S(=O)(=O)c2cccc3nsnc23)C1` (centres unmarked), the “hERG current change (%, negative = inhibition) at 1uM” value is reported as -1.28%. In the case of `Cc1nc2ccccc2c(N)c1C(=O)/C=C/c1ccccc1`, the “hERG current change (%, negative = inhibition) at 1uM” value is reported as -29%. With `CCCCCOC(=O)Nc1ccc(S(=O)(=O)Nn2cnnc2)cc1` the “hERG current change (%, negative = inhibition) at 1uM” value was 7.36%. In the case of `O=C(CN(C(=O)c1ccc(Cl)cc1)N1C(=O)C2CCCCC2C1=O)c1ccc(Cl)cc1` (centres unmarked), the “hERG current change (%, negative = inhibition) at 1uM” value is reported as 9.14%. With `COCCNc1nc(N)c([N+](=O)[O-])c(NC2CCCCC2)n1` the “hERG current change (%, negative = inhibition) at 1uM” value was 6.89%. With `Cc1ccc(NS(=O)(=O)c2cccs2)cc1S(=O)(=O)N1CCCCCC1` the “hERG current change (%, negative = inhibition) at 1uM” value was 16.5%. `Cc1ccc(S(=O)(=O)N2CCCCC2)cc1NC(=O)COC(=O)CNC(=O)c1cc(Cl)cc([N+](=O)[O-])c1` was tested, and the “hERG current change (%, negative = inhibition) at 1uM” value was 2.42%. With `CCc1cccc(C)c1NC(=O)CCOc1ccccc1` the “hERG current change (%, negative = inhibition) at 1uM” value was 12.1%. `Cc1ccc(S(=O)(=O)N2CCOCC2)cc1NC(=O)COC(=O)CCn1c(C)csc1=O` was tested, and the “hERG current change (%, negative = inhibition) at 1uM” value was 5.21%. For `COc1ccccc1-c1sc2cc3c(cc2c1-c1ccc2c(c1)OCO2)OCO3`, the “hERG current change (%, negative = inhibition) at 1uM” value was 8.66%. For `CC(=O)Nc1ccc2nc(-c3ccccn3)[nH]c2c1`, the “hERG current change (%, negative = inhibition) at 1uM” value was 3.78%. With `CCCCCCCCCC(=O)OCC(O)CO` (centres unmarked) the “hERG current change (%, negative = inhibition) at 1uM” value was 9.55%. In the case of `CCOc1nc(-c2ccccc2)c2cc(C)ccc2n1`, the “hERG current change (%, negative = inhibition) at 1uM” value is reported as 9.98%. In the case of `O.OC[C@H]1O[C@@H](n2cnc3c(NC4CCCC4)nc(Cl)nc32)[C@H](O)[C@@H]1O`, the “hERG current change (%, negative = inhibition) at 1uM” value is reported as 3.87%. `CC(NC(=O)c1cc(S(=O)(=O)N2CCCC2)ccc1Cl)c1ccccn1` (centres unmarked) was tested, and the “hERG current change (%, negative = inhibition) at 1uM” value was 13%. For `CC(=O)O[C@H]1CC[C@@]2(C)C(=CC[C@H]3[C@@H]4CC[C@H](C(C)=O)[C@@]4(C)CC[C@@H]32)C1`, the “hERG current change (%, negative = inhibition) at 1uM” value was 15.1%. With `O=C1/C(=C/c2ccc(O)cc2)COc2ccccc21` the “hERG current change (%, negative = inhibition) at 1uM” value was 20.1%. In the case of `Cc1ccnc(OC(C(=O)O)C(OCc2ccccc2)(c2ccc(F)cc2)c2ccc(F)cc2)n1` (centres unmarked), the “hERG current change (%, negative = inhibition) at 1uM” value is reported as 18.7%. For `Cc1cc(C)n(-c2cc(O)c(-n3nc(C)cc3C)cc2O)n1`, the “hERG current change (%, negative = inhibition) at 1uM” value was 17.2%. `CCCNC(=S)N1CCN(CC)CC1.O=C(O)C(=O)O` was tested, and the “hERG current change (%, negative = inhibition) at 1uM” value was 7.7%. `O=C(OCC(=O)N1CCc2ccccc2C1)c1cc(=O)[nH]c2ccccc12` was tested, and the “hERG current change (%, negative = inhibition) at 1uM” value was 10.2%. `CCc1nn2cc(C(=O)c3cc(C)ccc3O)cnc2c1-c1ccc(F)cc1` was tested, and the “hERG current change (%, negative = inhibition) at 1uM” value was 14.3%. For `Cc1nnc(SCc2ccc(Cl)c(Cl)c2)s1`, the “hERG current change (%, negative = inhibition) at 1uM” value was 11.3%. With `CCN1CCN(C(=O)CN(c2ccc(F)cc2)S(=O)(=O)c2ccc(OC)c(OC)c2)CC1` the “hERG current change (%, negative = inhibition) at 1uM” value was -19.4%. With `Cc1cccc(N=C2NC(=O)/C(=C/c3cccs3)S2)c1` the “hERG current change (%, negative = inhibition) at 1uM” value was 14.4%. `NC(=O)C1(N2CCCCC2)CCN(C(=S)Nc2ccc(S(N)(=O)=O)cc2)CC1` was tested, and the “hERG current change (%, negative = inhibition) at 1uM” value was 11.8%. With `O=C(NCc1ccc(F)cc1)c1ccc(Cl)c(NC2=NC3CS(=O)(=O)CC3S2)c1` (centres unmarked) the “hERG current change (%, negative = inhibition) at 1uM” value was 2.71%. With `O=C(CN1Cc2ccccc2C1=O)Nc1ccc2c(c1)OCCO2` the “hERG current change (%, negative = inhibition) at 1uM” value was 6.01%. `CCCCn1c(N)c(N(CC(C)C)C(=O)c2cc(S(=O)(=O)N3CCCCC3)ccc2C)c(=O)[nH]c1=O` was tested, and the “hERG current change (%, negative = inhibition) at 1uM” value was 15.5%. For `C=CCSc1nnc(NC(=O)c2ccc(N3CCCC3=O)cc2)s1`, the “hERG current change (%, negative = inhibition) at 1uM” value was 11.8%. `CCOC(=O)c1cnc2c(c(C)nn2C)c1Oc1cc(Cl)cc(Cl)c1` was tested, and the “hERG current change (%, negative = inhibition) at 1uM” value was 12.2%. For `O=C(CC(=O)N/N=C\c1c(Cl)cccc1Cl)NCc1ccccc1`, the “hERG current change (%, negative = inhibition) at 1uM” value was 9.58%. `Cc1cccc(C)c1NC(=O)C(=O)NCc1ccccn1` was tested, and the “hERG current change (%, negative = inhibition) at 1uM” value was 3.24%. In the case of `CCC(=O)N1c2ccccc2NC2=C(C(=O)CC(c3ccco3)C2)C1c1ccco1` (centres unmarked), the “hERG current change (%, negative = inhibition) at 1uM” value is reported as 3.54%. For `Cc1cc(NCCCn2ccnc2)n2nc(-c3ccc(Cl)cc3)cc2n1`, the “hERG current change (%, negative = inhibition) at 1uM” value was -14.7%. `CCc1ccc(NC(=S)N2CCCC2)cc1` was tested, and the “hERG current change (%, negative = inhibition) at 1uM” value was 15.3%. In the case of `O=C(c1ccco1)N1CCN(S(=O)(=O)c2cccc3nsnc23)CC1`, the “hERG current change (%, negative = inhibition) at 1uM” value is reported as 1.54%. With `Nc1ccc2oc(-c3cc(Br)ccc3Cl)nc2c1` the “hERG current change (%, negative = inhibition) at 1uM” value was 5.83%. With `CC(C)CC(=O)Nc1nnc(SCC(=O)NCc2ccco2)s1` the “hERG current change (%, negative = inhibition) at 1uM” value was 7.7%. With `CSCCC(NC(=O)c1ccccc1)C(=O)N/N=C(\C)Cc1ccccc1` (centres unmarked) the “hERG current change (%, negative = inhibition) at 1uM” value was 9.78%. With `O=C(c1ccc(N2CCCC2=O)cc1)N1CCN(c2ccccc2O)CC1` the “hERG current change (%, negative = inhibition) at 1uM” value was -8.28%. `O=C1Nc2cc(C(=O)N3CCC(N4CCCCC4)CC3)ccc2S/C1=C\c1ccccc1` was tested, and the “hERG current change (%, negative = inhibition) at 1uM” value was -1.99%. With `Cn1c(=O)c2[nH]cnc2n(-c2ccccc2)c1=O` the “hERG current change (%, negative = inhibition) at 1uM” value was 5.46%. For `Cc1ccc(C)c(C(=O)CSc2n[nH]c(C)n2)c1`, the “hERG current change (%, negative = inhibition) at 1uM” value was 0.472%. With `COc1cc(CC(=O)NCC2CCCCC2)cc(OC)c1OC` the “hERG current change (%, negative = inhibition) at 1uM” value was 15.4%. `Cc1sc(NC(=O)C2CCCCC2C(=O)O)c(C(N)=O)c1-c1ccccc1` (centres unmarked) was tested, and the “hERG current change (%, negative = inhibition) at 1uM” value was 12.2%. `O=C(Nc1cccc(S(=O)(=O)C(F)F)c1)c1ccc(S(=O)(=O)N2CCCCC2)cc1` was tested, and the “hERG current change (%, negative = inhibition) at 1uM” value was 8.37%. For `CC(C)(C)C(=O)COC(=O)c1cc(-c2cccnc2)nc2ccccc12`, the “hERG current change (%, negative = inhibition) at 1uM” value was -3.68%. For `O=C(Nc1cnc2ccccc2c1)C1COc2ccccc2O1` (centres unmarked), the “hERG current change (%, negative = inhibition) at 1uM” value was -6.77%. For `Cc1ccc(NS(=O)(=O)c2cc(NC(=O)c3cc4c(s3)CCCC4)ccc2C)c(C)c1`, the “hERG current change (%, negative = inhibition) at 1uM” value was 7.78%. For `CCN(CC)CCSc1nc2ccccc2n1Cc1ccccc1.Cl`, the “hERG current change (%, negative = inhibition) at 1uM” value was -79%. In the case of `COc1ccccc1CNC(=O)N[C@@H](Cc1ccccc1)C(=O)O`, the “hERG current change (%, negative = inhibition) at 1uM” value is reported as 4.81%. `O=C1NC(=O)/C(=C\c2ccc(O)cc2O)S1` was tested, and the “hERG current change (%, negative = inhibition) at 1uM” value was 12.8%. With `CN1CCN(c2nc(-c3ccccc3Cl)nc3ccccc23)CC1` the “hERG current change (%, negative = inhibition) at 1uM” value was -19.8%. With `CCOc1cc(C2NC(=O)NC(O)(C(F)(F)F)C2C(=O)c2ccccc2)ccc1OC` (centres unmarked) the “hERG current change (%, negative = inhibition) at 1uM” value was 0.368%.
